Assay [1] deals with T1, Chk1 (human (endogenous in HeLa)) (UniProt O14757).
T1 sequence: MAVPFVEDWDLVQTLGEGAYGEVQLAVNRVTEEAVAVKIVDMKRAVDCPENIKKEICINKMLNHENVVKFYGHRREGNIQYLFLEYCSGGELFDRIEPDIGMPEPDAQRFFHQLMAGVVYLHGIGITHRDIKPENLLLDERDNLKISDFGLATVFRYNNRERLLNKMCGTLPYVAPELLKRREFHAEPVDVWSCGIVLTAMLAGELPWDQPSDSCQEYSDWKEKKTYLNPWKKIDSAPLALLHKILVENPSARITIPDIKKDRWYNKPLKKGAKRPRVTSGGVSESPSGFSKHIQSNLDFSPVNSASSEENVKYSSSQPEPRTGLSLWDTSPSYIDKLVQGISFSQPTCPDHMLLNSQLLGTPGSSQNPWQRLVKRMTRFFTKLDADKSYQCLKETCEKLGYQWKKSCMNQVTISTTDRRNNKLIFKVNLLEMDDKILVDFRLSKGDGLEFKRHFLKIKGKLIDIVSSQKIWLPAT
The assay is described as follows: co-IP; Non-denaturing IP with rabbit polyclonal anti-Chk1 (sc-7898) and protein A sepharose from NETN lysates of HeLa Tet-Off cells synchronized in S-phase; immunoblot for Rad9A. A general note: In western blotting, separated proteins are transferred to a membrane and probed.

In assay [2] the target is T2, Rad9A (human (endogenous in HeLa)) (UniProt Q99638).
T2 sequence: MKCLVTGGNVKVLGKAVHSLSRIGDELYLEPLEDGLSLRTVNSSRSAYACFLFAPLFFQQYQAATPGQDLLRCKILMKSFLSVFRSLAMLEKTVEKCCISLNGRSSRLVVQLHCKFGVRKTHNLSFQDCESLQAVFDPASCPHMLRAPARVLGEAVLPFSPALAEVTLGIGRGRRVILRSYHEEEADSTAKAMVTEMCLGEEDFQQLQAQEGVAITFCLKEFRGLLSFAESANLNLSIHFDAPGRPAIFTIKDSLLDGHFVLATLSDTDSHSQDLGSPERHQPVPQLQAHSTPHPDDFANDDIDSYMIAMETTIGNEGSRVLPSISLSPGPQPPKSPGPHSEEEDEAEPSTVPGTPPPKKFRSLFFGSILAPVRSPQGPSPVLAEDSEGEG
The assay is described as follows: condition: only denaturing conditions (1% SDS, boiling for 10 min at 95°C); co-IP; Denaturing IP (IPD) with anti-Rad9A: asynchronous HeLa Tet-Off cells lysed in 1% SDS buffer, boiled 10 min at 95°C, sonicated, diluted with 9 vol of modified RIPA buffer before IP; immunoblot.

Assay [3] concerns the target T2, Rad9A (human (endogenous in HeLa)). The assay is described as follows: co-IP; Non-denaturing IP (IPND) with affinity purified chicken polyclonal anti-Rad9A and PrecipHen beads from NETN lysates (120 mM NaCl, 20 mM Tris-HCl pH 8.0, 0.5% NP40, DNase I treated), 4°C; HeLa Tet-Off cells asynchronous (Fig 3A) or synchronized in S-phase, exposed to 100 μg/ml BLEO for 20 h, or 10 Gy IR and harvested 20 h later (Fig 6B); immunoblot.

No constants are given. Whether binding was seen depends on the method and setting. In cells and extracts the contact can be indirect. Some binding calls cover weakened binding; strength is not graded here.

B1: Rad9A (protein, UniProt Q99638 1-391)
chain: T2 sequence
On to B1, for which the binding entry in assay [1] is “binds”.

B2: Rad1 (protein, UniProt O60671 1-282)
chain: MPLLTQQIQDEDDQYSLVASLDNVRNLSTILKAIHFREHATCFATKNGIKVTVENAKCVQANAFIQAGIFQEFKVQEESVTFRINLTVLLDCLSIFGSSPMPGTLTALRMCYQGYGYPLMLFLEEGGVVTVCKINTQEPEETLDFDFCSTNVINKIILQSEGLREAFSELDMTSEVLQITMSPDKPYFRLSTFGNAGSSHLDYPKDSDLMEAFHCNQTQVNRYKISLLKPSTKALVLSCKVSIRTDNRGFLSLQYMIRNEDGQICFVEYYCCPDEEVPESES
With B2, the binding result in assay [2] is listed as “no binding”; in assay [3] it was “binds”.

B3: Hus1 (protein, UniProt O60921 1-280)
chain: MKFRAKIVDGACLNHFTRISNMIAKLAKTCTLRISPDKLNFILCDKLANGGVSMWCELEQENFFNEFQMEGVSAENNEIYLELTSENLSRALKTAQNARALKIKLTNKHFPCLTVSVELLSMSSSSRIVTHDIPIKVIPRKLWKDLQEPVVPDPDVSIYLPVLKTMKSVVEKMKNISNHLVIEANLDGELNLKIETELVCVTTHFKDLGNPPLASESTHEDRNVEHMAEVHIDIRKLLQFLAGQQVNPTKALCNIVNNKMVHFDLLHEDVSLQYFIPALS
For B3, the binding result in assay [2] is listed as “no binding”; in assay [3], “binds”.

These data come from PMC4676731.
